From patent US20220056142A1
Values belong to the binder of their own block, whether it stands above or below them.

Experiments:
[1] = target: T1, mouse FGFR3 with the G380R mutation, in primary rib chondrocytes of the achondroplasia (Ach) mouse model (mouse), Q61851
[2] = target: T1, mouse FGFR3 with the G380R mutation, in …; remark: listed apart in the source
[3] = target: T1, mouse FGFR3 with the G380R mutation, in …; remark: listed apart in the source

T1 sequence (Q61851 21-801, stated change not applied): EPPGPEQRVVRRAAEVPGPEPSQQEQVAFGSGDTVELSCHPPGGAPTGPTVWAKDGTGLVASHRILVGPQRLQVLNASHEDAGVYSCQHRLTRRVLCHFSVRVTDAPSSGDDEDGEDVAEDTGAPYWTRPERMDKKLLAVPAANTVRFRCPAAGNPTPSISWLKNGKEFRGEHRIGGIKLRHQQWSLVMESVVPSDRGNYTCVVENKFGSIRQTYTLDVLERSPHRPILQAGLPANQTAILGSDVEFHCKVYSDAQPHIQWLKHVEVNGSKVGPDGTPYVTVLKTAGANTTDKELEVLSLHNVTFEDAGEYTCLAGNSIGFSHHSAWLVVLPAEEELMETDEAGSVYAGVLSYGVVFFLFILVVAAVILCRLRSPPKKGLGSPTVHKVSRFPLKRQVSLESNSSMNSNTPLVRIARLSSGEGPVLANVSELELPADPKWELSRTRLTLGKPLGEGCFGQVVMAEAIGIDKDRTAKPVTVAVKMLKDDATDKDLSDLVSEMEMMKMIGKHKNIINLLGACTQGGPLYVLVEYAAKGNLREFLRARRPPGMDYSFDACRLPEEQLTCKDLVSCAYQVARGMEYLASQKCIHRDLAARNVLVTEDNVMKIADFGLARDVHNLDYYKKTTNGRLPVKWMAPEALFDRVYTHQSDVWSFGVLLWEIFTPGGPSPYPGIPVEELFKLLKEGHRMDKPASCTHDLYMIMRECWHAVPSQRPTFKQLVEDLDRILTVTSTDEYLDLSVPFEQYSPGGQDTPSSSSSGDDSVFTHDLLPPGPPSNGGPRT

IC50, inhibition of FGF18-stimulated Erk phosphorylation (pErk/Erk %, HTRF), 'Hu18 on Ach PRCs' [1]: 0.54 µg/ml
B1: KC18_Hu18 (antibody, human IgG1, kappa)
heavy: EVQLVQSGAEVKKPGATVKLSCKASGDTFTDFEIHWVQQAPGKGLEWIGDVDPETGGTAYAEKFQGRATLTADRSTDTAYMELSSLRSEDTAVYYCTRTYDGYPYAFDYWGQGTLVTVSS[human IgG1 constant region left out here]
light: DIVMTQSPDSLAVSLGERATINCKSSQSVLYSNNNKNYLAWYQQKPGQSPKLLIYWASTRESGVPDRFSGSGSGTDFTLTISSVQAEDVAVYYCQQYYSYRTFGGGTKVEIKRTVAAPSVFIFPPSDEQLKSGTASVVCLLNNFYPREAKVQWKVDNALQSGNSQESVTEQDSKDSTYSLSSTLTLSKADYEKHKVYACEVTHQGLSSPVTKSFNRGEC

IC50, inhibition of FGF18-stimulated Erk phosphorylation (pErk/Erk ratio %, HTRF), 'Hu44 on Ach PRCs' [2]: 0.29 µg/ml
B2: KC18_Hu44 (antibody, human IgG1, kappa)
heavy: EVQLVQSGAEVKKPGATVKLSCKASGDTFTDFEIHWVQQAPGKGLEWIGDVDPETGGTAYAEKFQGRATLTADRSTDTAYLELSSLRSEDTAVYYCTRTYDGYPYAFDYWGQGTLVTVSS[human IgG1 constant region left out here]
light: DIVMTQSPDSLAVSLGERATINCKSSQSVLYSNNNKNYLAWYQQKPGQSPKLLIYWASTRESGVPDRFSGSGSGTDFTLTISSVQAEDVAVYYCQQYYSYRTFGGGTKVEIKRTVAAPSVFIFPPSDEQLKSGTASVVCLLNNFYPREAKVQWKVDNALQSGNSQESVTEQDSKDSTYSLSSTLTLSKADYEKHKVYACEVTHQGLSSPVTKSFNRGEC

IC50, inhibition of FGF18-stimulated Erk phosphorylation (pErk/Erk %, HTRF), 'Hu46 on Ach PRCs' [3]: 0.595 µg/ml
B3: KC18_Hu46 (antibody, human IgG1, kappa)
heavy: EVQLVQSGAEVKKPGATVKLSCKASGDTFTDFEIHWVQQAPGKGLEWIGDVDPETGGTAYAEKFQGRATLTADRSTDTAYLELSSLRSEDTAVYYCTRTYDGYPYAFDYWGQGTLVTVSS[human IgG1 constant region left out here]
light: DIVMTQSPDSLAVSLGERVTINCKSSQSVLYSDNQKNYLAWYQQKPGQSPKLLIYFASTRESGVPDRFSGSGSGTDFTLTISSVQAEDVAVYYCQQYYSYRTFGGGTKLEIKRTVAAPSVFIFPPSDEQLKSGTASVVCLLNNFYPREAKVQWKVDNALQSGNSQESVTEQDSKDSTYSLSSTLTLSKADYEKHKVYACEVTHQGLSSPVTKSFNRGEC
